According to patent publication US12662541B2, “Antibody-drug conjugates against the receptor tyrosine kinase EphA5” (Rutgers, The State University of New Jersey, priority 2021, dated 2026):

B1: VH5/VK3: humanized anti-EphA5 IgG1/kappa antibody, heavy chain SEQ ID NO:39, light chain SEQ ID NO:40 (antibody)
heavy: EVQLVESGGGLVQPGGSLKLSCAASGFTFSTFGIHWVRQAPGKGLEWVAYISGASTTIYYADSVKGRFTISRDNSKNTLYLQMNSLRAEDTAVYYCARYGTSFPYGLDYWGQGTLVTVSSASTKGPSVFPLAPSSKSTSGGTAALGCLVKDYFPEPVTVSWNSGALTSGVHTFPAVLQSSGLYSLSSVVTVPSSSLGTQTYICNVNHKPSNTKVDKRV[letters of human IgG1 Fc left out]
light: DIVMTQSPDSLAVSLGERATINCKASQSVDYDGDSYMNWYQQKPGKAPKLLIYGASNLESGIPDRFSGSGSGTDFTLTISRLEPEDAAVYYCQQSNEDPFTFGQGTKLEIKRTVAAPSVFIFPPSDEQLKSGTASVVCLLNNFYPREAKVQWKVDNALQSGNSQESVTEQDSKDSTYSLSSTLTLSKADYEKHKVYACEVTHQGLSSPVTKSFNRGEC
B2: VH5Vk3-ThioBridge®-VCP-MMAE (conjugate)
heavy: EVQLVESGGGLVQPGGSLKLSCAASGFTFSTFGIHWVRQAPGKGLEWVAYISGASTTIYYADSVKGRFTISRDNSKNTLYLQMNSLRAEDTAVYYCARYGTSFPYGLDYWGQGTLVTVSSASTKGPSVFPLAPSSKSTSGGTAALGCLVKDYFPEPVTVSWNSGALTSGVHTFPAVLQSSGLYSLSSVVTVPSSSLGTQTYICNVNHKPSNTKVDKRV[letters of human IgG1 Fc left out]
light: DIVMTQSPDSLAVSLGERATINCKASQSVDYDGDSYMNWYQQKPGKAPKLLIYGASNLESGIPDRFSGSGSGTDFTLTISRLEPEDAAVYYCQQSNEDPFTFGQGTKLEIKRTVAAPSVFIFPPSDEQLKSGTASVVCLLNNFYPREAKVQWKVDNALQSGNSQESVTEQDSKDSTYSLSSTLTLSKADYEKHKVYACEVTHQGLSSPVTKSFNRGEC

Key:
EphA5 antigen = target: T1, EphA5 antigen (Homo sapiens, UniProt P54756); experiment: kd (1/s)
T1 construct: purchased R and D systems 3036-A5
T1 sequence (P54756 25-1037 limits assumed): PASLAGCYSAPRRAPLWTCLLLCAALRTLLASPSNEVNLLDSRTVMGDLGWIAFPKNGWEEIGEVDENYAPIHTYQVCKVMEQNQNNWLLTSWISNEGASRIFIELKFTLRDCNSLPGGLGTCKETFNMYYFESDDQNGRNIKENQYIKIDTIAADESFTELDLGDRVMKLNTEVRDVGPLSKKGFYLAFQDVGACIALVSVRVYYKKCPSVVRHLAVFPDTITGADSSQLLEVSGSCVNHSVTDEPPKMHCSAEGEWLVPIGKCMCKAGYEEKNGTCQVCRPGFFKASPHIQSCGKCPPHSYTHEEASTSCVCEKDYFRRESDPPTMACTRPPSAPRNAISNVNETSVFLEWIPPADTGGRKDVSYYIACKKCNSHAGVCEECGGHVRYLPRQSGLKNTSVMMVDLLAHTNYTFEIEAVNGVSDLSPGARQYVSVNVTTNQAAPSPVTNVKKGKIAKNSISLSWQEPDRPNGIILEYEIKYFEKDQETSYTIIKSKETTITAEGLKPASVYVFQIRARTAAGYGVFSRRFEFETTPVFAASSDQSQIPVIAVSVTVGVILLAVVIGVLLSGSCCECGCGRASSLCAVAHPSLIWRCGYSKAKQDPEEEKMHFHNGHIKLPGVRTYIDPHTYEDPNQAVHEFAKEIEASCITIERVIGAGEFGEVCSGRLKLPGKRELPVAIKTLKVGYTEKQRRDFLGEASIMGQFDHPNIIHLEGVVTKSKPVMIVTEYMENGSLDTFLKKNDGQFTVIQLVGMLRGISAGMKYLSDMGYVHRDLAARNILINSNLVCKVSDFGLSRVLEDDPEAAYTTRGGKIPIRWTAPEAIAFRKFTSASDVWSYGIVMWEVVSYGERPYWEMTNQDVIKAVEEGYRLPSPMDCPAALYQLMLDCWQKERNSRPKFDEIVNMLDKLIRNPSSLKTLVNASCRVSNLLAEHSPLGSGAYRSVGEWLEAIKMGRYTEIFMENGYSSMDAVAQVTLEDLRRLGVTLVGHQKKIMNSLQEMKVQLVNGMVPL
Procedure: Table printed on a drawing sheet, FIG. 19
Head of the field: kd (1/s)
The patent's description of the figure: FIG. 19 is a table illustrating the Multi-cycle kinetic parameters of chimeric (VH0/VK0) and humanized variants (tested as purified proteins) binding to EphA5 antigen as determined using the Biacore T200. The relative KD was calculated by dividing the KD of the humanized variant by that of the VH0VK0 (first row) assayed in the same experiment. […]
Where the first naming reader finds the target: description_of_the_figure: humanized variants (tested as purified proteins) binding to EphA5 antigen as determined using the Biacore T200

[1] = Body weight of tumor-bearing mice pre- and post-treatment, cell line xenograft studies
[2] = tested on: PDX model TM00098 (BR1126F), triple negative breast cancer; experiment: PDX TM00098 efficacy; assay type: in vivo, mice
Procedure: (§1) The present studies were performed using female NSG™ mice implanted with the PDX model TM00098 (BR1126F) purchased from Jackson Laboratories. These mice are extremely immunodeficient and carry two mutations: severe combined immune deficiency (scid) and a complete null allele of the IL2 receptor common gamma chain (IL2rgnull). The scid mutation is a mutation in the DNA repair complex protein Prkdc and renders the mice B and T cell deficient. The IL2rgnull mutation prevents cytokine signaling through multiple receptors, leading to a deficiency in functional NK cells. This severe immunodeficiency allows the implantation of PDX and growth of human tissue-based tumors in the mice. These tumors have similar characteristics to the human tumors from which they are derived (e.g., gene expression) and are predictive of human response to therapeutic agents.
Mice received 5 weekly doses of ADC1 or ADC2 at 10 mg/kg or PBS via tail vein injection. Animals were dosed on days 0, 7, 14, 21 and 28 and observed the tumors from day 28-50 without treatment to observe sustained regression and/or delay in tumor regrowth. The number of mice used per group averaged n=7-10 with some mice presenting with more than 1 tumor implanted subcutaneously. In those cases, each tumor size was measured and recorded independently. […]

[3] = tested on: PDX model TM00188 (LG0520F), lung squamous cell carcinoma; experiment: PDX TM00188 efficacy; assay type: in vivo, mice; conditions: 5 weekly doses of 10 mg/kg tail vein, ADC2 = VH5Vk3-ThioBridge®-VCP-(SN-38)2, listed as ADC1, 10 mg/kg
Procedure: as §1, with “TM00188 (LG0520F)” for “TM00098 (BR1126F)”, “(IL2rg^null).” for “(IL2rgnull).”, “IL2rg^null” for “IL2rgnull”
Mice received 5 weekly doses of ADC1 or ADC2 at 10 mg/kg or PBS via tail vein injection. Animals were dosed on days 0, 7, 14, 21 and 28 followed by 3 weeks of observation (day 28-50) without treatment. The number of mice used per group averaged n=10 with some mice presenting with more than 1 tumor implanted subcutaneously. In those cases, each tumor size was measured and recorded independently. Measurements were performed 2-3 times weekly with the aid of a digital caliper (Fisherbrand™ Traceable™ Digital Carbon Fiber Calipers). […]

H226 (EphA5-negative) = experiment: Cell death time-course (Green Object Count), H226; assay type: cell-based, human; conditions: FIG. 4B

Molecule	kd (EphA5 antigen) [s⁻¹]	change in body weight, first dosing vs termination ([1]; A549 xenograft, 10 mg/kg)	change in body weight, first dosing vs termination ([1]; H460 xenograft, 10 mg/kg every 5 days, 3 doses)	change in body weight, first dosing vs termination ([1]; H522 xenograft, 10 mg/kg weekly, 3 doses)	tumor response (tumor volume) ([2]; 5 weekly doses of 10 mg/kg tail vein, 50 days, here ADC2 = VH5Vk3-ThioBridge®-VCP-(SN-38)2)	tumors removed at termination (weight) ([2]; ADC2 = VH5Vk3-ThioBridge®-VCP-(SN-38)2)	tumor response (tumor volume) [3]	killing of EPHA5− cells (H226 (EphA5-negative))
B1	0.00135	–	–	–	–	–	–	–
B2	–	No significant differences in the body weights	no significant changes in body weight	no significant changes	full and sustained regression of tumors	completely regressed	complete and sustained regression of all tumors; also recorded: full and sustained regression of tumors	not EPHA5− cells

“Also recorded” adds a separate entry of the source.
